# Among all 310,000 compounds or so, about 2,200 (0.71%) showed an effect of 50% or more. Effects have a minus sign here. This is one part of the list.
# Target: human ether-à-go-go-related gene (hERG) potassium channel (human, UniProt Q12809)
# Assay: primary screen, population patch clamp on CHO cells stably expressing hERG
# Chain of human ether-à-go-go-related gene (hERG) potassium channel (Q12809 whole entry, looked up): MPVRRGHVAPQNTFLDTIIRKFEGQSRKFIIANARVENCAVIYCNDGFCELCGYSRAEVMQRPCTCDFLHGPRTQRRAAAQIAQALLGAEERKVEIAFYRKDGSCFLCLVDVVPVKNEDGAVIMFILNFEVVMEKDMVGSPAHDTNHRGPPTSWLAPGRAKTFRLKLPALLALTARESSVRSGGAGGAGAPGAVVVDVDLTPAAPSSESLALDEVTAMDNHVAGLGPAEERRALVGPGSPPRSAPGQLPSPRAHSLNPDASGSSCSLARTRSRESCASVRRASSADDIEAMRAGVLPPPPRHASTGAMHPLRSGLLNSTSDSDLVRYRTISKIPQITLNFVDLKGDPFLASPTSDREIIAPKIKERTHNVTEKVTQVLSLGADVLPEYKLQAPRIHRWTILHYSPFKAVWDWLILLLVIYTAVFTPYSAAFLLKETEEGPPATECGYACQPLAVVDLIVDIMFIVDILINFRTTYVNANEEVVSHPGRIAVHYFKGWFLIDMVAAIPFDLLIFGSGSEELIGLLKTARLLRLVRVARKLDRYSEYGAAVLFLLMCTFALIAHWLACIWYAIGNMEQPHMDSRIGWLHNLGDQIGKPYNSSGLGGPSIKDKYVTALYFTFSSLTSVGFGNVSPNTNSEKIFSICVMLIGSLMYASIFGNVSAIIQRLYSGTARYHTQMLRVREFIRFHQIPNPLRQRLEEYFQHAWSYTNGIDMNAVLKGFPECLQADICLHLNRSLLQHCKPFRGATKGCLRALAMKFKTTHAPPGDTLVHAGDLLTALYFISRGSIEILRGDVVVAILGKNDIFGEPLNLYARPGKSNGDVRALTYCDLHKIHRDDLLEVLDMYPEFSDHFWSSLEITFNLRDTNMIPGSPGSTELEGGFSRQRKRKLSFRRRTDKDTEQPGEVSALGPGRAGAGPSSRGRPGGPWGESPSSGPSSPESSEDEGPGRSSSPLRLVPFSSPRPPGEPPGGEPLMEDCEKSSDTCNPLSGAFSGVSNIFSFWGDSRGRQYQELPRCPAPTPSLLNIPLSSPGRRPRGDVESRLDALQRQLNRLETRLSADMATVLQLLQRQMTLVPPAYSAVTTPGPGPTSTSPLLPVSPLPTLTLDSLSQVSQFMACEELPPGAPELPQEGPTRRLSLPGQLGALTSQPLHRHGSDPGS
row,SMILES,"hERG current change (%, negative = inhibition) at 1uM [%]"
1,CCOc1ccc(-n2c(C)nc3cc(C(=O)NCc4ccc5c(c4)OCO5)ccc32)cc1,-4.26
2,O=C(CCC(=O)c1cccs1)OCc1nnc(-c2ccccc2)o1,10.6
3,COc1cccc(Cn2c(NCc3ccco3)nc3c2c(=O)n(C)c(=O)n3C)c1,-2.28
4,O=C(c1ccc(Br)s1)N1CCCC1,0.124
5,O=C(CC1C(=O)NCCN1Cc1ccccc1)NCCCOc1cccnc1 (stereo not shown),13.7
6,Nc1nnc(Cc2ccccc2)s1,-8.31
7,CCOC(=O)c1c(NC(=O)CCC(=O)O)sc2c1CC(C)(C)OC2,13.4
8,Cc1cc(F)ccc1NC(=S)NCCc1ccccc1,17.7
9,CC(C)(C)SCCNC(=O)/C=C/c1ccc([N+](=O)[O-])cc1,-11
10,CCCN=C(C)c1c(-c2ccccc2)[nH]n(-c2nc3ccccc3s2)c1=O,7.75
11,CCCc1[nH][nH]c(=O)c1C(c1cccc(Cl)c1)C(C#N)C#N (stereo not shown),10.7
12,COc1ccc(CCC(=O)Nc2nc(-c3ccncc3)cs2)cc1,-7.84
13,CC(C)Cn1c(C(C)C)nc([N+](=O)[O-])c1Sc1ccc(Cl)cn1,11.4
14,CN(C)CC(O)CN(c1ccccc1)c1ccccc1 (stereo not shown),-25.6
15,CC(c1ccccc1)n1cc(C(=O)NCCN2CCOCC2)nn1 (stereo not shown),10.2
16,CCc1cc2c(=O)n(-c3ccccc3)c(SCC(N)=O)nc2s1,5.57
17,Cc1cc(C(=O)Nc2cccc3ccccc23)co1,4.84
18,CC(NC(=O)COc1ccccc1-c1ccccc1)c1ccccc1 (stereo not shown),13.2
19,Cc1cc(C)c(S(C)(=O)=O)c(Oc2ccc(C(C)(C)C)cc2)n1,10.7
20,Cc1cc(Cl)ccc1NC(=O)CN1C(=O)CSc2ccc(S(=O)(=O)N3CCOCC3)cc21,6.8
21,CC(c1ccon1)N(C)C(=O)CCc1nnc(C2(c3ccc(Cl)cc3)CCC2)o1 (stereo not shown),11.1
22,NC(=O)c1ccc(NCCCN2CCOCC2)c([N+](=O)[O-])c1,0.862
23,CC(C)N1CCN(Cc2ccccc2-c2ccco2)CC1CCO (stereo not shown),-2.31

row,SMILES,"hERG current change (%, negative = inhibition) at 1uM [%]"
1,COc1ccc(NC(=O)c2nc(SC)ncc2Cl)cc1,1.09
2,CCCOc1ccc(C(=O)Nc2nc(C)c(Cc3ccc4c(c3)OCO4)s2)cc1,1.56
3,O=C(/C=C\c1ccco1)NC(=S)Nc1ccccc1O,13.9
4,Cc1cc(C)nc(-n2nc(C)cc2Nc2ccccc2)n1,3.45
5,Cc1ccc(S(=O)(=O)N2CCN(C(=O)CSc3nc4ccccc4o3)C2)cc1,-8.31
6,O=C(Nc1ccc(F)cc1)c1ccc2snnc2c1,0.259
7,Nc1ccc2c(c1)N=[N+]([O-])c1cc(N)ccc1C2,14.4
8,Cn1c(CNC(=O)c2cccs2)n[nH]c1=S,12.8
9,O=C(c1cc(F)c(F)cc1Cl)N1CCCc2ccccc21,6.17
10,Cc1cc(SCC(=O)NCCN2C(=O)CSC2=O)nc2c(C)cccc12,7.76
11,COc1cccc(C2=NN(S(C)(=O)=O)C(c3cccs3)C2)c1 (stereo not shown),8.75
12,COc1cccc(NC(=S)/C(=C(\[O-])c2ccc(OC(F)F)cc2)[n+]2ccccc2)c1,6.96
13,O=c1c2ccc(Cl)cc2[nH]c(=S)n1Cc1cccnc1,13.1
14,Cc1nn(C)cc1C1C2=C(CC(C)(C)CC2=O)N(c2ccccc2)C2=C1C(=O)CC(C)(C)C2,4.17
15,NC(=S)N=Nc1c(O)[nH]c2c(Br)cc(Br)cc12,12.7
16,O=C(O)CCn1c2c(c3ccccc31)CCCC2,19.5
17,CCOC(=O)N1CCN(C2CC(=O)N(c3ccc(Cl)c(Cl)c3)C2=O)CC1 (stereo not shown),3.35
18,COc1ccc(NC(=O)CCNC(C)=O)cc1NS(=O)(=O)c1ccc(F)cc1,9.74
19,C=CCn1c(SCC(=O)c2ccc(Cl)cc2)nnc1-c1ccc2c(c1)OCO2,3.97
20,CC(C)(C)NC(=O)[C@H]1CC[C@H]2[C@@H]3CC[C@H]4NC(=O)C=C[C@]4(C)[C@H]3CC[C@]12C,4.1
21,Cc1cc2oc(=O)cc(CN3CCC(C)CC3)c2c(C)c1Cl,6
22,C=CCn1c(CCn2c3ccccc3c3ccccc32)n[nH]c1=S,18.7
23,Cc1ccc(-c2csc(NC(=O)Cn3cnc4c3c(=O)n(C)c(=O)n4C)n2)cc1C,9.65

# Source: paper PMC4336329 (PLoS ONE, 2015)
